# In PubChem BioAssay AID1240 (Sanford-Burnham Center for Chemical Genomics, 2008):
# “And” between values parts separate entries of the source, which are not always exact repeats. Identical values can stand only once. Screen size: about 50,000 compounds; about 800 (1.6%) showed an effect of 50% or more. Some of the results follow.
# Biological target: Bcl-2-like protein 10 (Homo sapiens) (UniProt Q9HD36)
# Assay: Phenotype converters, Bcl-B/TR3 peptide binding displacement, primary biochemical FP (AID 1240);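 further: 0% = Bcl-B with tracer peptide and DMSO and 100% = tracer peptide lacking Bcl-B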
# Conditions: GST-Bcl-B / FITC-TR3 peptide fluorescence polarization; stronger effect = higher value; compound at 3.75 mg/L
# UniProt Q9HD36, sequence (Q9HD36 whole entry, looked up): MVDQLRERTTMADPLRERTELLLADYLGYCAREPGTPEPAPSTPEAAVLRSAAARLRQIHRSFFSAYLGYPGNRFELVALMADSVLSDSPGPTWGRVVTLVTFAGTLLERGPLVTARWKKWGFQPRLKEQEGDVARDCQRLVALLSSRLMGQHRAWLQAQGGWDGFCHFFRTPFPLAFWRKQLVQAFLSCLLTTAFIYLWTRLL
row,Compound,displacement
1,COc1cc(/C=N/N2C(=O)C3C4C=CC(C4)C3C2=O)cc(I)c1OC (centres undefined),8.9%
2,Cc1ncc(-c2ccc(Br)cc2)cn1,-4%
3,CCOc1ccccc1NC(=O)c1ccc(N(C)C)cc1,14.9%
4,COc1ccc(OC)c(N=Cc2c(O)n(-c3ccccc3Cl)c(=O)[nH]c2=O)c1,98.7%
5,CC(=O)c1cccc(N2C(=O)C3C4C=CC(C5CC45)C3C2=O)c1 (centres undefined),8.9%
6,CCOC(=O)c1[nH]c(=O)c2ccccc2c1O,-12.2%
7,COc1ccc(CN2CCN(Cc3ccncc3)CC2)c(OC)c1,-16.7%
8,CCCOc1ccc(-c2ccc(-c3noc(CC)n3)cc2)cc1,-10.4%
9,CCOc1ccccc1/C=C1\C(=O)N(CCOC)C(C)=C1C(=O)OC,-1.3%
10,CCOc1ccccc1C(=O)Nc1sc2c(c1C#N)CCCC2,-4.6%
11,COc1ccc2c(c1)c(/C=C/c1nc3ccccc3c(=O)n1-c1ccccc1OC)c(C)n2C,-1%
12,COc1ccc(C(=O)Nc2cc(Cl)ccc2Cl)cc1NC(=O)COc1ccc(F)cc1,-3.5%
13,CCC(=O)Oc1ccc2c(C)cc(=O)oc2c1C(=O)c1ccccc1,5.3%
14,NNC(=O)C1c2ccccc2Oc2ccccc21,0%
15,O=C(O)CC(NC(=O)c1ccco1)c1ccccc1 (centres undefined),-0.2%
16,CC(=O)C(C)Oc1ccc2ccc(=O)oc2c1 (centres undefined),11.4%
17,COC(=O)c1c(NC(=O)c2cccc(F)c2)sc2c1CCCCC2,-8.5%
18,CCOC(=O)C1=C(C)NC(C)=C(C(=O)OC)C1c1ccco1 (centres undefined),-0.1%
19,O=C1CC(NC2CCCCC2)C(=O)N1c1ccccc1 (centres undefined),9.4%
20,COc1cc(N2C(=O)NC(=O)/C(=C\c3cc(Br)c(O)c(OC)c3)C2=O)c(OC)cc1Cl,9.5%
21,N/C(=N\OC(=O)c1ccc(I)cc1)c1ccc(Cl)cc1,2.8%
22,COc1ccc(C2C3=C(CC(C)(C)CC3=O)NC3=C2C(=O)CC(C)(C)C3)cc1Br,11.7%

row,Compound,displacement
1,Cc1c(N2C(=O)S/C(=C\c3ccccc3)C2=O)c(=O)n(-c2ccccc2)n1C,1.7%
2,COc1cc(CN2CCN(Cc3ccccn3)CC2)cc(OC)c1OC,-5.1%
3,CC(=O)Nc1ccc(Cl)c(C(N)=O)c1,-7.9%
4,C=CCN(CC=C)C(=O)c1ccc(OC)cc1,-0.4%
5,Cc1cccc(C(C)C)c1NC(=O)C1COc2ccccc2O1 (centres undefined),-8.3%
6,O=C1CSC2(N1)C1CC3CC(C1)CC2C3 (centres undefined),-1.5%
7,COc1cc(C(=O)c2ccccc2)c(OC)cc1C(=O)NC1CC(C)(C)NC(C)(C)C1,-11.2%
8,CCc1ccc(NC(=O)/C(C#N)=C\c2ccc(I)o2)cc1,-8.1%
9,CCOC(=O)c1c(-c2ccc(Cl)cc2)csc1NC(=O)c1ccccc1OC,10.2%
10,COc1cc(Br)cc(/C=C2\C(=O)NC(=O)N(c3ccc(Cl)cc3)C2=O)c1OC,-12.5%
11,COc1cc(/C=C2\C(=O)N(c3ccc(S(N)(=O)=O)cc3)N=C2C)cc(Cl)c1OC(C)C,0.6%
12,O=C(COc1ccc(Cl)cc1Br)NNC(=O)c1cccc(Br)c1,-6%
13,COc1ccc(CNCc2ccccc2)cc1,-1.2% and 9.2%
14,COc1ccc(CN2CCN(Cc3cccc([N+](=O)[O-])c3)CC2)cc1Br,-9.2%
15,O=C1CC(N2CCN(Cc3ccc4c(c3)OCO4)CC2)C(=O)N1c1cc(Cl)cc(Cl)c1 (centres undefined),2.4%
16,CCOC(=O)c1cc2c(nc1N)COC(C)(C)C2,-6%
17,O=C(O)c1cccc2c1NC(c1ccc(Cl)cc1)C1CC=CC21 (centres undefined),148%
18,Cc1ccc(N2C(=O)CC(Cc3ccc(Cl)cc3)C2=O)cc1 (centres undefined),10.3%
19,Cc1ccc(C(=O)CSc2ncn[nH]2)cc1,13.3%
20,COc1ccc(OC)c(C2=C/C(=C/c3ccccc3[N+](=O)[O-])C(=O)O2)c1,3.3%
21,Cc1cc(NC(=O)c2ccc3c(c2)C(=O)N(C(C)(C)C)C3=O)no1,5.1%
22,COc1ccc(OC)c(/C=N/NC(=O)c2c[nH]c3ccccc23)c1,4.5%

row,Compound,displacement
1,O=C(C1CCCC1)N1CCN(c2ccc([N+](=O)[O-])cc2)CC1,-0.8%
2,Cc1ccc(N(CC(=O)Nc2cccc3cccnc23)S(=O)(=O)c2ccc(C)cc2)cc1,-6.1%
3,CSc1ccc(CN2CCN(C(=O)c3ccccc3F)CC2)cc1,-8.1%
4,COC(=O)C(Cc1ccc(O)cc1)N=Cc1ccccc1O (centres undefined),3.2%
5,C/C(CC(=O)NC12CC3CC(CC(C3)C1)C2)=N\NC(=O)c1ccccc1Cl,-4.2%
6,Cc1cc(Nc2cc(Cl)cc(Cl)c2)n2ncnc2n1,17.6%
7,COc1ccc(C(=O)Nc2ccc([N+](=O)[O-])cc2Cl)cc1OC,9.1%
8,O=C1NC(=O)C(=Cc2ccccc2OS(=O)(=O)c2ccc([N+](=O)[O-])cc2)C(=O)N1,5.9%
9,Cc1ccc(S(=O)(=O)/N=C(\N)Nc2nc3ccccc3o2)cc1,-7.3%
10,NS(=O)(=O)c1ccc(NC(=O)c2ccc(Oc3ccccc3)cc2)cc1,13.4%
11,C=CCc1cccc(/C=N/c2nc3ccccc3n2CCC)c1O,1.4%
12,COc1cccc(C2C(C(=O)Nc3ccccc3)=C(C)N=c3s/c(=C\c4ccc(N(C)C)o4)c(=O)n32)c1 (centres undefined),4.3%
13,O=C(O)CCCN1C(=O)C(=O)/C(=C(\O)c2ccc(Cl)cc2)C1c1ccc(F)cc1 (centres undefined),-0.6%
14,N/C(Cc1ccc([N+](=O)[O-])cc1)=N\OC(=O)c1cccc(Br)c1,1.6%
15,O=C(/C=C/c1ccc(F)cc1)Nc1ccc(N2CCOCC2)cc1,5.3%
16,O=C(CC1Sc2ccccc2NC1=O)Nc1ccc(O)cc1 (centres undefined),3.8%
17,O=C(/C=C/c1ccccc1)Oc1ccc(C(=S)N2CCOCC2)cc1,14.1%
18,Cc1ccc(C)c(-c2nn(-c3cc(N4CCCC4)ccc3[N+](=O)[O-])c(=O)c3ccccc23)c1,12.9%
19,CCOC(=O)N1CCN(C(=O)Nc2cccc3ccccc23)CC1,-4.2%
20,CCOC(=O)c1sc(NC(=O)/C=C/c2cccs2)c(C(=O)OCC)c1C,-8.1%
21,CC1(C)CC(=O)C2=C(C1)Nc1ccccc1NC2c1coc2ccc(Cl)cc2c1=O (centres undefined),-11.9%
22,Oc1ccc(/C=N/Nc2ccc(C(F)(F)F)cn2)c(O)c1,-14.9%

row,Compound,displacement
1,COc1cc(/C=N/N2C(=O)c3ccccc3C2=O)ccc1OCc1ccc(F)cc1,2.1%
2,O=C(Nc1nccs1)c1ccc2c(c1)OCO2,32.1%
3,COc1ccc(OC(C)C(=O)Nc2ncn[nH]2)cc1 (centres undefined),-4.4%
4,COc1cccc(NC2=NC3(CCCC3)N=C(N)N2)c1,-1.6%
5,Cc1cc(C)n(-c2cc(N/N=C\c3ccc(N(C)C)cc3)nc(C)n2)n1,-8.7%
6,O=S(=O)(c1cccc2ccccc12)n1cnc2ccccc21,6.3%
7,O=C1NC(=O)/C(=C/c2cc(Cl)ccc2O)N1,8%
8,COc1ccc(/C=N\N2CCN(c3ccc(Cl)cc3)CC2)cc1O,2.2%
9,Cc1ccc(-c2nc3ccccn3c2NC(=O)c2ccccc2)cc1,9.4%
10,O=C(O)CCCCCN1C(=O)C(=O)/C(=C(/O)c2ccc(Cl)cc2)C1c1ccc2c(c1)OCO2 (centres undefined),-1.5%
11,COc1ccc(NC(=O)CC(C)Cc2ccc(Cl)cc2)cc1 (centres undefined),0.5%
12,COc1ccc(C2C(C(=O)OCCOc3ccccc3)=C(C)NC3=C2C(=O)CC(C)(C)C3)c(OC)c1 (centres undefined),-4.5%
13,O=C(c1ccncc1)N1N=C(c2cccc([N+](=O)[O-])c2)CC1(O)C(F)(F)F (centres undefined),-4.8%
14,CN(C)c1ccc(/C=C(\NC(=O)c2ccccc2)C(=O)NCc2ccncc2)cc1,5.3%
15,CS(=O)(=O)N(Cc1ccc(C(=O)NCc2ccc(Cl)cc2)cc1)c1ccccc1,0.2%
16,N/C(=N\OC(=O)Cc1ccc(Cl)cc1)c1ccccn1,2.5%
17,O=C1NC(=O)N(c2ccccc2)C(=O)/C1=C/c1ccc(N2CCCC2)cc1,-30.2%
18,CCOC(=O)c1c(NC(=S)NC(=O)c2ccc(OC)cc2)sc2c1CCC(C)C2 (centres undefined),8%
19,Cc1ccc(SCCNS(=O)(=O)c2ccc(C)cc2)cc1,-1.8%
20,O=C(CSc1nc2ccccc2c(=O)n1Cc1ccccc1)c1ccc(Cl)cc1,-9.1%
21,Cc1cc(C)n(S(=O)(=O)c2ccc(F)cc2)n1,6.7%
22,Cc1cccc(/C=C2\C(=O)NC(=O)N(c3ccc(Br)c(C)c3)C2=O)c1,-9.1%

row,Compound,displacement
1,O=[N+]([O-])c1ccc(N2CCOCC2)c(-c2nn[nH]n2)c1,-10.8%
2,O=C(Nc1cccc(F)c1)c1ccc(Br)c(S(=O)(=O)N2CCCCC2)c1,-3%
3,COc1ccc(NC(=O)C(=O)N/N=C/c2ccccc2O)cc1,10.4%
4,Cc1ccc(-c2nc3ncccc3o2)cc1NC(=O)c1cccc([N+](=O)[O-])c1,-4.7%
5,COc1ccc2oc(=O)c(-c3csc(/N=C/c4ccccc4O)n3)cc2c1,-16%
6,COc1cc(/C=C2\SC(=S)N(Cc3ccco3)C2=O)ccc1O,19%
7,COc1cccc(/C=N\N2CCN(c3ccc(C)cc3)CC2)c1O,0.4%
8,COc1cc([N+](=O)[O-])cc(/C=N/NC2=NS(=O)(=O)c3ccccc32)c1O,-2.8%
9,Cc1ccccc1C(=O)c1coc2ccccc2c1=O,1.8%
10,CCC(=O)c1ccc(N2CCN(C(=O)c3cccs3)CC2)c(F)c1,-4.8%
11,NC(=O)c1cccc(N=Cc2ccc[nH]2)c1,-1.6%
12,Cc1ccc(C(=O)Nc2nc(-c3ccc(F)cc3)cs2)o1,-2.9%
13,CCN(CC)CCCNC(=O)c1nn2c(C(F)(F)F)cc(-c3ccco3)nc2c1Cl,1.8%
14,O=[N+]([O-])c1ccc2nc3c4ccccc4n(CCCN4CCOCC4)c3cc2c1,40.9%
15,CC(Oc1ccccc1)C(=O)NC(c1ccccc1)c1ccccc1 (centres undefined),3.8%
16,CCOc1ccc(N(CC(=O)Nc2ccccc2C(=O)OC)S(=O)(=O)c2ccc(SC)cc2)cc1,14.7%
17,Cc1cc(NC(=O)c2ccccc2I)ccc1NC(=O)c1ccccc1,-0.6%
18,Cc1cc(Nc2ccc([N+](=O)[O-])cc2)nc(-c2ccccc2O)n1,-1.4%
19,CCOc1ccc(-c2[nH]c3ccc(Cl)c[n+]3c2C)cc1,-5.8%
20,CCOc1cccc(C(=O)Nc2cccc(OC)c2)c1,12.7%
21,Cc1cccc(N2CCN(C(=O)c3ccc(Cl)cc3Cl)CC2)c1C,0.7%
